The other results are listed elsewhere or left out.
How the values were obtained:
HSkMC = human skeletal muscle cells; test: cytotoxicity call (relative viability < 0.9); conditions: 10 µM
HepG2 = test: cytotoxicity call (relative viability < 0.9); conditions: 10 µM
S. aureus RN4220 = test: growth inhibition call (relative growth <= 0.2); conditions: 50 µM

C[C@@H]1CN([C@H](C)CO)C(=O)c2ccccc2-c2ccccc2CO[C@@H]1CN(C)C(=O)c1cc(Cl)cc(Cl)c1
inactive: cytotoxicity call (HSkMC) | cytotoxicity call (HepG2) | growth inhibition call (S. aureus RN4220)

COc1ccc(S(=O)(=O)Nc2ccc3c(c2)C(=O)N([C@@H](C)CO)C[C@H](C)[C@@H](CN(C)C(=O)c2ccccc2)OCCCC[C@H](C)O3)cc1
inactive: cytotoxicity call (HSkMC) | cytotoxicity call (HepG2) | growth inhibition call (S. aureus RN4220)

C[C@H]1CN([C@@H](C)CO)C(=O)Cc2cc(NC(=O)CCN3CCOCC3)ccc2O[C@@H]1CN(C)S(=O)(=O)c1ccc(F)cc1
inactive: cytotoxicity call (HSkMC) | cytotoxicity call (HepG2) | growth inhibition call (S. aureus RN4220)

C[C@H](CO)N1C[C@H](C)[C@H](CN(C)S(C)(=O)=O)Oc2ccc(N(C)C)cc2C1=O
inactive: cytotoxicity call (HSkMC) | cytotoxicity call (HepG2) | growth inhibition call (S. aureus RN4220)

C[C@@H]1CCCCO[C@@H](CN(C)C(=O)Nc2ccc(F)cc2)[C@@H](C)CN([C@@H](C)CO)C(=O)c2cc(NC(=O)CCC(F)(F)F)ccc2O1
inactive: cytotoxicity call (HSkMC) | cytotoxicity call (HepG2) | growth inhibition call (S. aureus RN4220)

C[C@H](CO)N1C[C@H](C)[C@@H](CN(C)C(=O)NC2CCCCC2)Oc2ccc(NC(=O)Nc3cccc4ccccc34)cc2C1=O
inactive: cytotoxicity call (HSkMC) | cytotoxicity call (HepG2) | growth inhibition call (S. aureus RN4220)

C[C@@H]1CCCCO[C@H](CN(C)Cc2ccc(C(F)(F)F)cc2)[C@@H](C)CN([C@H](C)CO)C(=O)c2cc(NC(=O)Nc3cccc4ccccc34)ccc2O1
inactive: cytotoxicity call (HSkMC) | cytotoxicity call (HepG2) | growth inhibition call (S. aureus RN4220)

C=CC[C@@H](CC(=O)N[C@H](CO)Cc1ccccc1)C(=O)NCCOC(=O)[C@H](CC=C)CC(=O)OC(C)(C)C
inactive: cytotoxicity call (HSkMC) | cytotoxicity call (HepG2) | growth inhibition call (S. aureus RN4220)

CCOC(=O)[C@@H]1CCC[C@@H]1N
inactive: cytotoxicity call (HSkMC) | cytotoxicity call (HepG2) | growth inhibition call (S. aureus RN4220)
